# Test results reported in ChEMBL document CHEMBL5606460, “ASAP - DENV-2 NS2B-NS3 protease fluorescence single point” (2024).
# The whole screen tested about 2,000 compounds, of which about 110 (5.5%) showed an effect of 50% or more. The list shows a part of the results.
# Biological target: Genome polyprotein (dengue virus type 2) (UniProt P29990)
# [1] = Thailand/16681/1984, Concentration 25.0 uM, Number of replicates 1.0
structure (smiles),measurement,setting,value
CCc1noc([C@@H](C)n2cc(C3CCNCC3)c(C)n2)n1,inhibition,"Thailand/16681/1984, Concentration 49.5 uM, Number of replicates 2.0, Standard deviation 2.2002562489050286 %",-3.46%
same,inhibition,"Thailand/16681/1984, Concentration 99.01 uM, Number of replicates 2.0, Standard deviation 0.4258731679531168 %",-3.6%
same,inhibition,"Thailand/16681/1984, Concentration 198.0 uM, Number of replicates 2.0, Standard deviation 1.1449005951850917 %",-3.94%
Cc1cnccc1NC(=O)c1cccn(CC2CCNCC2)c1=O,inhibition,"Thailand/16681/1984, Concentration 49.5 uM, Number of replicates 2.0, Standard deviation 1.0139655097272078 %",3.41%
same,inhibition,"Thailand/16681/1984, Concentration 99.01 uM, Number of replicates 2.0, Standard deviation 0.45414409382246623 %",8.44%
same,inhibition,"Thailand/16681/1984, Concentration 198.0 uM, Number of replicates 2.0, Standard deviation 0.4741958784700092 %",16.8%
O=C(Cc1cc2ccccc2[nH]1)NCc1cn2ccccc2n1,inhibition,"Thailand/16681/1984, Concentration 49.5 uM, Number of replicates 2.0, Standard deviation 1.8228117907928092 %",-0.696%
same,inhibition,"Thailand/16681/1984, Concentration 99.01 uM, Number of replicates 2.0, Standard deviation 0.2647063587926113 %",1.18%
same,inhibition,"Thailand/16681/1984, Concentration 198.0 uM, Number of replicates 2.0, Standard deviation 0.44504054313150715 %",2.28%
Cn1cc(NC(=O)c2ccccc2C(F)(F)F)c(-c2cnc3cn(C)nc3c2)n1,inhibition,"Thailand/16681/1984, Concentration 49.5 uM, Number of replicates 2.0, Standard deviation 6.457702028088129 %",-3.02%
same,inhibition,"Thailand/16681/1984, Concentration 99.01 uM, Number of replicates 2.0, Standard deviation 5.49571101622526 %",-3.85%
same,inhibition,"Thailand/16681/1984, Concentration 198.0 uM, Number of replicates 2.0, Standard deviation 4.391739589145666 %",-2.36%
O=C(O)c1cccc(NC(=O)c2cccc(OCc3c(Cl)cccc3Cl)c2)c1,inhibition,"Thailand/16681/1984, Concentration 49.5 uM, Number of replicates 2.0, Standard deviation 0.517131041635451 %",14.9%
same,inhibition,"Thailand/16681/1984, Concentration 99.01 uM, Number of replicates 2.0, Standard deviation 0.3657402361338958 %",47.1%
same,inhibition,"Thailand/16681/1984, Concentration 198.0 uM, Number of replicates 2.0, Standard deviation 0.23203020217005468 %",92.1%
Cc1nnccc1Cn1ncc(C2CCNCC2)c1C,inhibition,"Thailand/16681/1984, Concentration 49.5 uM, Number of replicates 2.0, Standard deviation 1.6182116637908872 %",-1.57%
same,inhibition,"Thailand/16681/1984, Concentration 99.01 uM, Number of replicates 2.0, Standard deviation 1.1987345119069654 %",-1.86%
same,inhibition,"Thailand/16681/1984, Concentration 198.0 uM, Number of replicates 2.0, Standard deviation 1.646461073694072 %",-2.12%
Cc1cc(CO)c2cccc(Cc3ccccc3C(=O)NCC3CCOCC3)c2n1,inhibition,"Thailand/16681/1984, Concentration 49.95 uM, Number of replicates 2.0, Standard deviation 0.20194122984333937 %",-2.05%
same,inhibition,"Thailand/16681/1984, Concentration 99.9 uM, Number of replicates 2.0, Standard deviation 0.1983479581266946 %",-1.04%
Cc1cc(CO)c2cccc(C[C@H](NC(=O)CNC3CC3)C(=O)O)c2n1,inhibition,"Thailand/16681/1984, Concentration 49.95 uM, Number of replicates 2.0, Standard deviation 1.120825978140881 %",2.76%
same,inhibition,"Thailand/16681/1984, Concentration 99.9 uM, Number of replicates 2.0, Standard deviation 4.280623426997303 %",7.25%
COc1ccc(OC)c(CN2CCN(C(=O)C3CCN(c4ccc(C=O)cc4)CC3)CC2)c1,inhibition,[1],13.6%
COc1ccc(CCCNC(=O)C2CCN(c3ccc(C=O)cc3)CC2)cc1,inhibition,[1],10.5%
N#Cc1cnn(-c2ccccn2)c1NC(=O)C1CCN(c2ccc(C=O)cc2)CC1,inhibition,[1],11.8%
O=C(c1cc(Cl)ccc1NS(=O)(=O)c1ccc(Oc2ccccc2Cl)cc1)N1CCC[C@H](O)C1,inhibition,"Thailand/16681/1984, Concentration 49.5 uM, Number of replicates 2.0, Standard deviation 1.2236693461292836 %",22.2%
same,inhibition,"Thailand/16681/1984, Concentration 99.01 uM, Number of replicates 2.0, Standard deviation 0.043163767671764885 %",86.9%
same,inhibition,"Thailand/16681/1984, Concentration 198.0 uM, Number of replicates 2.0, Standard deviation 0.0596286869236367 %",96.8%
CS(=O)(=O)C1(CN2CC[C@H](c3c[nH]c4ccccc34)C2)CC1,inhibition,"Thailand/16681/1984, Concentration 49.5 uM, Number of replicates 2.0, Standard deviation 3.3698314636697324 %",-1.85%
same,inhibition,"Thailand/16681/1984, Concentration 99.01 uM, Number of replicates 2.0, Standard deviation 2.803901957891398 %",-0.556%
same,inhibition,"Thailand/16681/1984, Concentration 198.0 uM, Number of replicates 2.0, Standard deviation 2.4749285250559807 %",2.95%
CC(C)(C)N(Cc1ccccc1)C(=O)C1CCN(c2ccc(C=O)cc2)CC1,inhibition,[1],13.3%
CCOC(=O)c1coc(Cn2cc(C3CCNCC3)c(C)n2)n1,inhibition,"Thailand/16681/1984, Concentration 49.5 uM, Number of replicates 2.0, Standard deviation 0.6058500102369131 %",-0.283%
same,inhibition,"Thailand/16681/1984, Concentration 99.01 uM, Number of replicates 2.0, Standard deviation 1.6851083007857124 %",-0.009%
same,inhibition,"Thailand/16681/1984, Concentration 198.0 uM, Number of replicates 2.0, Standard deviation 0.1399560493991858 %",0.367%
O=Cc1ccc(N2CCC(C(=O)N[C@@H](CCO)c3ccccc3F)CC2)cc1,inhibition,[1],11.4%
Cn1cc(CNC(=O)c2ccccc2-c2cccnc2)cn1,inhibition,"Thailand/16681/1984, Concentration 49.5 uM, Number of replicates 2.0, Standard deviation 1.1096991679871562 %",-0.458%
same,inhibition,"Thailand/16681/1984, Concentration 99.01 uM, Number of replicates 2.0, Standard deviation 1.523820403729435 %",-0.795%
same,inhibition,"Thailand/16681/1984, Concentration 198.0 uM, Number of replicates 2.0, Standard deviation 0.8526943871166377 %",-1.6%
Cn1oc(C(=O)Nc2cc(Cl)cc(C(=O)NC(C)(C)CO)c2)cc1=O,inhibition,"Thailand/16681/1984, Concentration 49.5 uM, Number of replicates 2.0, Standard deviation 0.8141956117621647 %",-0.341%
same,inhibition,"Thailand/16681/1984, Concentration 99.01 uM, Number of replicates 2.0, Standard deviation 1.5201786631370027 %",0.297%
same,inhibition,"Thailand/16681/1984, Concentration 198.0 uM, Number of replicates 2.0, Standard deviation 2.6564108106217375 %",1.39%
[N-]=[N+]=NCCOCCOCCOCCNC(=O)C1CCN(c2ccc(C=O)cc2)CC1,inhibition,[1],12.9%
O=Cc1ccc(N2CCC(C(=O)N3CCC(O)(c4ccc(Cl)cc4)CC3)CC2)cc1,inhibition,[1],12.1%
Cc1nc(C(=O)N2CCC(n3cc(CN)nn3)CC2)c(Cc2ccccc2)s1,inhibition,"Thailand/16681/1984, Concentration 49.5 uM, Number of replicates 2.0, Standard deviation 0.5458000023421373 %",-4.63%
same,inhibition,"Thailand/16681/1984, Concentration 99.01 uM, Number of replicates 2.0, Standard deviation 0.5815115328475999 %",-4.92%
same,inhibition,"Thailand/16681/1984, Concentration 198.0 uM, Number of replicates 2.0, Standard deviation 0.6177557995182402 %",-4.78%
